# The full ranking holds about 2,900 compounds; the median of “IRF Lucia reporter activity, fold change vs agonist alone” is about 0.9, and the highest 2% start at about 2.8. The list shows a part of the results.
# How the values were obtained:
# RAW-Dual [1] = assay: IRF Lucia reporter activity, fold change vs agonist alone; higher = enhanced IRF activity; details: agonist: MPLA (TLR4) […]
# Procedure, shortened: (§1)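 Cytotoxic wells were those whose IncuCyte confluency was below 70% of agonist controls in both mask sets. The cells were RAW-Dual macrophages at 50,000 cells/well in DMEM on 384-well plates, dosed with 50 nL of library stock by pin tool, stimulated with a PRR agonist 1 h later, and kept at 37 °C, 5% CO2 for 20 hours. IRF and NF-κB reporter activity, as fold change over agonist-alone wells, came from supernatant read by QuantiLuc luminescence and QuantiBlue absorbance, respectively.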
# RAW-Dual [2] = assay: IRF Lucia reporter activity, fold change vs agonist alone; cytotoxicity flag (confluency mask): not cytotoxic; higher = enhanced IRF activity
# Procedure, shortened: as §1
# RAW-Dual [3] = assay: IRF Lucia reporter activity, fold change vs agonist alone; cytotoxicity flag (confluency mask): cytotoxic (confluency <70% of control); higher = enhanced IRF activity
# Procedure, shortened: as §1
# [4] = library stock concentration (final ~1000-fold dilution): 10 mM, cytotoxicity flag (confluency mask): not cytotoxic
# [5] = agonist: 3'3'-cGAMP (STING) 10 ug/mL
smiles,measurement,setting,value
N#Cc1ccc(Oc2ccc3c(c2)COB3O)cc1,IRF Lucia reporter activity,RAW-Dual [1]; [4],1.08
N#Cc1ccc(Oc2ccc3c(c2)COB3O)cc1 (library stock concentration (final ~1000-fold dilution): 10 mM),IRF Lucia reporter activity,RAW-Dual [2]; [5],0.977
same,IRF Lucia reporter activity,RAW-Dual [2]; agonist: LPS (TLR4) 0.1 ug/mL,1.46
C=CC(=O)N1CC(N2CCN(C(=O)CNc3cc(C4(C)CC4)c(Cl)cc3O)CC2)C1 (library stock concentration (final ~1000-fold dilution): 10 mM),IRF Lucia reporter activity,RAW-Dual [2]; [5],0.269
same,IRF Lucia reporter activity,RAW-Dual [2]; agonist: LPS (TLR4) 0.1 ug/mL,0.547
CCCCCCOC(=O)N=C(N)c1ccc(NCc2nc3cc(C(=O)N(CCC(=O)OCC)c4ccccn4)ccc3n2C)cc1,IRF Lucia reporter activity,RAW-Dual [1]; [4],1.09
CCCCCCOC(=O)N=C(N)c1ccc(NCc2nc3cc(C(=O)N(CCC(=O)OCC)c4ccccn4)ccc3n2C)cc1 (library stock concentration (final ~1000-fold dilution): 10 mM),IRF Lucia reporter activity,RAW-Dual [2]; [5],0.764
same,IRF Lucia reporter activity,RAW-Dual [2]; agonist: LPS (TLR4) 0.1 ug/mL,1.22
O=C(O)CC[C@@H](O)C(=O)O (library stock concentration (final ~1000-fold dilution): 10 mM water),IRF Lucia reporter activity,RAW-Dual [2]; [5],1.24
same,IRF Lucia reporter activity,RAW-Dual [2]; agonist: LPS (TLR4) 0.1 ug/mL,0.813
CC(C)(C)c1cc(O)ccc1O (library stock concentration (final ~1000-fold dilution): 10 mM),IRF Lucia reporter activity,RAW-Dual [2]; [5],0.278
same,IRF Lucia reporter activity,RAW-Dual [2]; agonist: LPS (TLR4) 0.1 ug/mL,0.548
C[C@H]1O[C@@H](O[C@H]2CC[C@@]3(C)[C@@H](CC[C@]4(C)[C@@H]3C=C[C@]35OC[C@@]6(CCC(C)(C)C[C@H]63)[C@H](O)C[C@]54C)[C@]2(C)CO)[C@H](O)[C@@H](O[C@@H]2O[C@H](CO)[C@@H](O)[C@H](O)[C@H]2O)[C@H]1O (library stock concentration (final ~1000-fold dilution): 10 mM),IRF Lucia reporter activity,RAW-Dual [3]; [5],0.101
same,IRF Lucia reporter activity,RAW-Dual [3]; agonist: LPS (TLR4) 0.1 ug/mL,0.0686
CN(C)c1ccc2c(c1)Sc1cc(N(C)C)ccc1N2 (library stock concentration (final ~1000-fold dilution): 10 mM),IRF Lucia reporter activity,RAW-Dual [2]; [5],0.0324
same,IRF Lucia reporter activity,RAW-Dual [2]; agonist: LPS (TLR4) 0.1 ug/mL,0.632
CCCc1nc(C(C)(C)O)c(C(=O)O)n1Cc1ccc(-c2ccccc2-c2nnn[nH]2)cc1,IRF Lucia reporter activity,RAW-Dual [1]; [4],1.06
CCCc1nc(C(C)(C)O)c(C(=O)O)n1Cc1ccc(-c2ccccc2-c2nnn[nH]2)cc1 (library stock concentration (final ~1000-fold dilution): 10 mM),IRF Lucia reporter activity,RAW-Dual [2]; [5],1.02
same,IRF Lucia reporter activity,RAW-Dual [2]; agonist: LPS (TLR4) 0.1 ug/mL,0.811
CN(C)CC1CCn2cc(c3ccccc32)C2=C(C(=O)NC2=O)c2cn(c3ccccc23)CCO1.Cl (configuration not stated) (library stock concentration (final ~1000-fold dilution): 10 mM),IRF Lucia reporter activity,RAW-Dual [3]; [5],0.0473
same,IRF Lucia reporter activity,RAW-Dual [3]; agonist: LPS (TLR4) 0.1 ug/mL,0.188
CC(NC(=O)CCc1nc2ccccc2c(=O)[nH]1)c1ccccc1 (configuration not stated) (library stock concentration (final ~1000-fold dilution): 10 mM),IRF Lucia reporter activity,RAW-Dual [2]; [5],1.08
same,IRF Lucia reporter activity,RAW-Dual [2]; agonist: LPS (TLR4) 0.1 ug/mL,0.893
CC(NC(=O)CCc1nc2ccccc2c(=O)[nH]1)c1ccccc1 (configuration not stated),IRF Lucia reporter activity,RAW-Dual [1]; [4],0.927
COc1nc(-c2ccc3c(c2)OCO3)n(-c2ccc(NC(=O)CSc3ccccc3)cc2)n1 (library stock concentration (final ~1000-fold dilution): 10 mM),IRF Lucia reporter activity,RAW-Dual [2]; [5],0.59
same,IRF Lucia reporter activity,RAW-Dual [2]; agonist: LPS (TLR4) 0.1 ug/mL,1.14
Cl.Clc1cccc(-c2nnnn2Cc2cccnc2)c1Cl (library stock concentration (final ~1000-fold dilution): 10 mM),IRF Lucia reporter activity,RAW-Dual [2]; [5],0.707
same,IRF Lucia reporter activity,RAW-Dual [2]; agonist: LPS (TLR4) 0.1 ug/mL,0.829
CCS(=O)(=O)Nc1ccc2c(c1)/C(=C(/Nc1ccc(CN3CCCCC3)cc1)c1ccccc1)C(=O)N2,IRF Lucia reporter activity,"RAW-Dual [1]; library stock concentration (final ~1000-fold dilution): 10 mM, cytotoxicity flag (confluency mask): cytotoxic (confluency <70% of control)",0.0174
CCS(=O)(=O)Nc1ccc2c(c1)/C(=C(/Nc1ccc(CN3CCCCC3)cc1)c1ccccc1)C(=O)N2 (library stock concentration (final ~1000-fold dilution): 10 mM),IRF Lucia reporter activity,RAW-Dual [3]; [5],0.0206
same,IRF Lucia reporter activity,RAW-Dual [3]; agonist: LPS (TLR4) 0.1 ug/mL,0.0188
CCOC(=O)C(CCc1ccccc1)NC1CCc2ccccc2N(CC(=O)O)C1=O.Cl (configuration not stated) (library stock concentration (final ~1000-fold dilution): 10 mM),IRF Lucia reporter activity,RAW-Dual [2]; [5],0.935
same,IRF Lucia reporter activity,RAW-Dual [2]; agonist: LPS (TLR4) 0.1 ug/mL,1.03
CCOC(=O)C(CCc1ccccc1)NC1CCc2ccccc2N(CC(=O)O)C1=O.Cl (configuration not stated),IRF Lucia reporter activity,RAW-Dual [1]; [4],0.964
O=C(Nc1ccc(-c2ccnc(Nc3ccc(N4CCOCC4)cc3)n2)cc1)C1CCCN1 (configuration not stated),IRF Lucia reporter activity,RAW-Dual [1]; [4],0.04
O=C(Nc1ccc(-c2ccnc(Nc3ccc(N4CCOCC4)cc3)n2)cc1)C1CCCN1 (configuration not stated) (library stock concentration (final ~1000-fold dilution): 10 mM),IRF Lucia reporter activity,RAW-Dual [2]; [5],0.0117
same,IRF Lucia reporter activity,RAW-Dual [2]; agonist: LPS (TLR4) 0.1 ug/mL,0.0373
COc1ccc2[nH]c([S+]([O-])Cc3ncc(C)c(OC)c3C)nc2c1 (configuration not stated) (library stock concentration (final ~1000-fold dilution): 10 mM),IRF Lucia reporter activity,RAW-Dual [2]; [5],0.925
same,IRF Lucia reporter activity,RAW-Dual [2]; agonist: LPS (TLR4) 0.1 ug/mL,0.957
COc1ccc2[nH]c([S+]([O-])Cc3ncc(C)c(OC)c3C)nc2c1 (configuration not stated),IRF Lucia reporter activity,RAW-Dual [1]; [4],0.713
N#Cc1cc(N2CCC(C(=O)N3N=CCC3c3cc(F)cc(F)c3)CC2)ncn1 (configuration not stated) (library stock concentration (final ~1000-fold dilution): 10 mM),IRF Lucia reporter activity,RAW-Dual [2]; [5],0.715
same,IRF Lucia reporter activity,RAW-Dual [2]; agonist: LPS (TLR4) 0.1 ug/mL,0.991
CC(Nc1nc(N2CCCC2)nc2ccccc12)c1ccccc1 (configuration not stated) (library stock concentration (final ~1000-fold dilution): 10 mM),IRF Lucia reporter activity,RAW-Dual [2]; [5],0.531
same,IRF Lucia reporter activity,RAW-Dual [2]; agonist: LPS (TLR4) 0.1 ug/mL,1.39
O=S(=O)(O)CCCS(=O)(=O)O,IRF Lucia reporter activity,"RAW-Dual [1]; library stock concentration (final ~1000-fold dilution): 10 mM water, cytotoxicity flag (confluency mask): not cytotoxic",1.09
O=S(=O)(O)CCCS(=O)(=O)O (library stock concentration (final ~1000-fold dilution): 10 mM water),IRF Lucia reporter activity,RAW-Dual [2]; [5],1.36
same,IRF Lucia reporter activity,RAW-Dual [2]; agonist: LPS (TLR4) 0.1 ug/mL,0.821
Nc1cccc2c1CN(C1CCC(=O)NC1=O)C2=O (configuration not stated),IRF Lucia reporter activity,RAW-Dual [1]; [4],1.06
Nc1cccc2c1CN(C1CCC(=O)NC1=O)C2=O (configuration not stated) (library stock concentration (final ~1000-fold dilution): 10 mM),IRF Lucia reporter activity,RAW-Dual [2]; [5],1.06
same,IRF Lucia reporter activity,RAW-Dual [2]; agonist: LPS (TLR4) 0.1 ug/mL,0.986
Cc1cccc2c3c(ccc12)C1=C(C(=O)C3=O)C(C)CO1 (configuration not stated) (library stock concentration (final ~1000-fold dilution): 10 mM),IRF Lucia reporter activity,RAW-Dual [2]; [5],0.0995
same,IRF Lucia reporter activity,RAW-Dual [2]; agonist: LPS (TLR4) 0.1 ug/mL,0.359
NC(=S)N/N=C/c1ncccc1N (library stock concentration (final ~1000-fold dilution): 10 mM),IRF Lucia reporter activity,RAW-Dual [2]; [5],0.432
same,IRF Lucia reporter activity,RAW-Dual [2]; agonist: LPS (TLR4) 0.1 ug/mL,0.833
NC(=S)N/N=C/c1ncccc1N,IRF Lucia reporter activity,RAW-Dual [1]; [4],0.705
CCCCCCCCOC(=O)c1cc(O)c(O)c(O)c1 (library stock concentration (final ~1000-fold dilution): 10 mM),IRF Lucia reporter activity,RAW-Dual [3]; [5],0.0201
same,IRF Lucia reporter activity,RAW-Dual [3]; agonist: LPS (TLR4) 0.1 ug/mL,0.24

# From the supplement of paper PMC10037445
